This is one part of the list.

From the antibiotic and cytotoxicity screens of Wong et al. (2023) come the findings set out here.

The test relates to S. aureus RN4220. The experiment in a line: growth inhibition call (relative growth <= 0.2). The note with it: 50 µM.
Regarding `COc1ccc(S(=O)(=O)N2C[C@@H](O)COC[C@H]3O[C@H](CC(=O)N[C@H]4CCN(Cc5ccccc5)C4)CC[C@@H]32)cc1`, the growth inhibition call was “inactive”. On to `C[C@H](CO)N1C[C@H](C)[C@H](CN(C)C(=O)Nc2ccc(F)cc2)Oc2ccc(NC(=O)Cn3cnnn3)cc2CC1=O`, for which the growth inhibition call was “inactive”. To `CO[C@H]1CN(C)C(=O)c2cc(NC(=O)CC(F)(F)F)ccc2OC[C@H](C)N(S(=O)(=O)c2cn(C)cn2)C[C@@H]1C` belongs “inactive”; to `COc1ccc(NC(=O)Nc2ccc3c(c2)C(=O)N([C@H](C)CO)C[C@@H](C)[C@H](CN(C)Cc2ccc4c(c2)OCO4)OCCCC[C@H](C)O3)cc1`, “inactive”; to `C[C@H]1CN([C@@H](C)CO)S(=O)(=O)c2ccc(C#CC3CC3)cc2O[C@@H]1CN(C)Cc1cccc(F)c1`, “inactive”. On to `C[C@H](CO)N1C[C@H](C)[C@H](CN(C)C(=O)CN(C)C)Oc2cc(C#CC(C)(C)O)ccc2S1(=O)=O`, for which the growth inhibition call was “inactive”. To `CN(C)CCc1c[nH]c2ccc(CC3COC(=O)N3)cc12` (stereo not given) belongs “inactive”.

As to `Cc1noc(C)c1S(=O)(=O)Nc1ccc2c(c1)C(=O)N([C@H](C)CO)C[C@@H](C)[C@@H](CN(C)CC1CCCCC1)OCCCC[C@@H](C)O2`, the growth inhibition call is “inactive”. To `COc1ccc(S(=O)(=O)N(C)C[C@@H]2OCCCC[C@H](C)Oc3ccc(NC(=O)Nc4ccc(F)cc4)cc3C(=O)N([C@@H](C)CO)C[C@H]2C)cc1` belongs “inactive”. To `O=c1[nH]c(=O)c2cc(Br)ccc2[nH]1` belongs “inactive”; to `C[C@@H]1CN([C@H](C)CO)C(=O)c2cc(NS(C)(=O)=O)ccc2O[C@@H](C)CCCCO[C@H]1CN(C)C(=O)Nc1ccc(C(F)(F)F)cc1`, “inactive”. The value for `COc1ccc([Si](C)(C)[C@H]2[C@H](CCO)O[C@@]3(C(=O)N(Cc4ccc(N(C=O)c5ccccc5)cc4)c4ccccc43)[C@@H]2C)cc1` was “inactive”; that for `C[C@@H]1CN([C@@H](C)CO)C(=O)c2cc(C3=CCCC3)cnc2O[C@H]1CN(C)S(=O)(=O)c1cn(C)cn1` was “inactive”.

For the molecule `C[C@@H]1CN([C@@H](C)CO)C(=O)c2cc(NC(=O)Cc3cn(C)c4ccccc34)ccc2O[C@@H]1CN(C)CC1CCCCC1`, the growth inhibition call was “inactive”. `CCS(=O)(=O)Nc1ccc2c(c1)C(=O)N(C)C[C@@H](OC)[C@H](C)CN(Cc1nccs1)[C@H](C)CO2`: the growth inhibition call is “inactive”. To `CCNC(=O)C[C@@H]1CC[C@@H](NC(=O)C2CC2)[C@@H](CO)O1` belongs “inactive”; to `CC(C)(C)[S@@](=O)N1Cc2cc(C(=O)NCc3ccc4c(c3)OCO4)nc(-c3cccc(-c4cccnc4)c3)c2[C@H]1CCO`, “inactive”. To `Cc1noc(C)c1S(=O)(=O)N(C)C[C@@H]1Oc2ccc(NC(=O)Nc3ccc4c(c3)OCO4)cc2CC(=O)N([C@H](C)CO)C[C@@H]1C` belongs “inactive”; to `C[C@@H]1CN([C@H](C)CO)C(=O)c2c(c3ccccc3n2C)-c2ccccc2CO[C@H]1CN(C)Cc1ccc(O)cc1`, “inactive”. To `Cc1noc(C)c1NC(=O)N[C@H]1C=C[C@@H](CC(=O)N2CCN(C)CC2)O[C@H]1CO` belongs “inactive”; to `C[C@@H]1CN([C@@H](C)CO)C(=O)c2cc(NC(=O)CCC(F)(F)F)ccc2O[C@@H](C)CCCCO[C@@H]1CN(C)C(=O)CCC(F)(F)F`, “inactive”. As to `NCC[C@@H]1CC[C@@H](NC(=O)C2CC2)[C@H](CO)O1`, the growth inhibition call was “inactive”.

As for `C[C@@H]1CCCCO[C@H](CN(C)C(=O)NC2CCCCC2)[C@H](C)CN([C@H](C)CO)C(=O)c2cc(NC(=O)Cc3ccccc3)ccc2O1`, the growth inhibition call was “inactive”. To `O=C(Nc1ccc(C(=O)Nc2ccc(C(=O)Nc3ccc(S(=O)(=O)O)c4cc(S(=O)(=O)O)cc(S(=O)(=O)O)c34)cc2)cc1)Nc1ccc(C(=O)Nc2ccc(C(=O)Nc3ccc(S(=O)(=O)O)c4cc(S(=O)(=O)O)cc(S(=O)(=O)O)c34)cc2)cc1` belongs “inactive”; to `NC1CCN(C(=O)c2c[nH]c3ccccc23)CC1`, “inactive”; to `N[C@@H]1CC[C@@H](CCn2cc(C3(O)CCCC3)nn2)O[C@H]1CO`, “inactive”.

For the molecule `NC1CONC1=O` (stereo not given), the growth inhibition call was “inactive”. To `C[C@@H]1CN([C@@H](C)CO)S(=O)(=O)c2ccc(Br)cc2O[C@@H]1CN(C)C(=O)NC1CCCCC1` belongs “inactive”. Turning to `NC(Cc1c[nH]c2ccccc12)C(=O)O` (stereo not given), the growth inhibition call was “inactive”.

With `Cc1ccc(S(=O)(=O)Nc2ccc3c(c2)C(=O)N([C@@H](C)CO)C[C@@H](C)[C@H](CN(C)S(=O)(=O)c2ccc(Cl)cc2)OCCCC[C@@H](C)O3)cc1`, the growth inhibition call is “inactive”. The value for `COc1ccc(S(=O)(=O)Nc2cccc3c2O[C@H](CN(C)S(=O)(=O)c2c(C)noc2C)[C@@H](C)CN([C@H](C)CO)C3=O)cc1` was “inactive”. The value for `C[C@H]1CN([C@@H](C)CO)C(=O)c2cc(C#CCN(C)C)cnc2O[C@@H]1CN(C)Cc1ccc(C(=O)O)cc1` was “inactive”; that for `NC(=O)C1(N2CCCCC2)CCN(CCCC(=O)c2ccc(F)cc2)CC1` was “inactive”. As to `C[C@H]1CN([C@@H](C)CO)S(=O)(=O)c2ccc(-c3cncnc3)cc2O[C@@H]1CN(C)C(=O)c1cccc(F)c1`, the growth inhibition call was “inactive”.

Take `NCC[C@H]1CC[C@H](NC(=O)Cc2ccncc2)[C@H](CO)O1`: the growth inhibition call is “inactive”. As for `COCC(=O)N1C[C@@H](C)[C@@H](OC)CN(C)C(=O)c2ccc(NC(=O)c3ccc(OC)cc3)cc2OC[C@H]1C`, the growth inhibition call was “inactive”. For `CC(C(=O)O)c1ccc(-c2ccccc2)c(F)c1` (stereo not given), the growth inhibition call was “inactive”.

With `C[C@@H]1CN([C@H](C)CO)C(=O)c2cc(NC(=O)c3ccccc3)ccc2O[C@@H](C)CCCCO[C@H]1CN(C)C(=O)Cc1ccccc1`, the growth inhibition call was “inactive”.

For the molecule `Cc1ccc(S(=O)(=O)N(C)C[C@@H]2Oc3ccc(NS(=O)(=O)c4ccccc4)cc3C(=O)N([C@H](C)CO)C[C@H]2C)cc1`, the growth inhibition call was “inactive”. As to `O=C1N[C@@H](Cc2ccccc2)C(=O)N2[C@@H]1C[C@@H](C(=O)NCc1ccc(F)cc1)[C@H]2c1cccc(OCCO)c1`, the growth inhibition call was “inactive”.
